Out of some 45,000 compounds screened, about 65 (0.1%) were called active. Calls follow the shape of the dose curve; as a rule, active = well fitted activation curve with a large enough effect; inconclusive = small, poorly fitted or top-dose-only effect; inactive = no such curve, though single readings can be large or run the other way. The list shows a part of the results.
What follows are compounds tested against Galactocerebrosidase (Homo sapiens) (UniProt P54803) (assay: A Novel Cell-Based Assay to Identify Small Molecules for B -Galactocerebrosidase). Conditions: 145M-Twi-hGALC-G270D cells (Twitcher mouse brain line with human GALC G270D), HMU-beta-Gal fluorescence, 48 h; series mostly up to 57.5 µM; activation: at the top concentration.
In short: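 Mutant human GALC (G270D), stably expressed in a Twitcher mouse brain cell line lacking endogenous GALC, is measured in live-treated cells via 6-hexadecanoylamino-4-methylumbelliferyl-β-galactoside hydrolysis (0.1 mM final, pH 5.2) with fluorescent detection.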
Also: 0% is about no effect; nearly all actives have a fitted effect of over 65% in size.

Chain of UniProt P54803 (P54803 whole entry, looked up): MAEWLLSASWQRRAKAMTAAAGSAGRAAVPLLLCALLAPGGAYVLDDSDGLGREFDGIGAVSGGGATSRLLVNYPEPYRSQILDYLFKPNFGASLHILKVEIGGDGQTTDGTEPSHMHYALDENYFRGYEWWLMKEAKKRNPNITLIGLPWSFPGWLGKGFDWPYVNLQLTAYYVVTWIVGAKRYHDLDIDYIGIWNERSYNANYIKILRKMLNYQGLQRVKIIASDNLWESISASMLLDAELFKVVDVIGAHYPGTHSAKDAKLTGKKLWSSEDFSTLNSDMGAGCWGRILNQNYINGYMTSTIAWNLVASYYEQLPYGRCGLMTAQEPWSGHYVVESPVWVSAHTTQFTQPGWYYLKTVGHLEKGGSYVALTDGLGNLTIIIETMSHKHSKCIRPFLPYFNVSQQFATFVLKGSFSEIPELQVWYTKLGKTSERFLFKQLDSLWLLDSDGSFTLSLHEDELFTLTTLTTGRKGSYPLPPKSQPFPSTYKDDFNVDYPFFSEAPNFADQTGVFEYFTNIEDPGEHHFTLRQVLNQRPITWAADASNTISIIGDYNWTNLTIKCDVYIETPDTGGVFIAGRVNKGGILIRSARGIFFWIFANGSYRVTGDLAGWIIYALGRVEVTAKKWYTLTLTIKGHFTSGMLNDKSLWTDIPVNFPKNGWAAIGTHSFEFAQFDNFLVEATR

Structure (SMILES) | activation
CCOC(=O)COc1ccc(CC)cc1C(=O)c1ccn2nc(-c3ccc(F)cc3)cc2n1 | inactive: -10%
Cc1ccc(NC(=O)CN2C=NS(=O)(=O)c3ccccc32)cc1 | inactive: -10.2%
CCOC(=O)c1cnc2ccc(Br)cc2c1NCCN1CCOCC1 | inactive: -28.2%
Cc1ccc(CCNC(=O)Cn2c(-c3cccs3)cc3ccccc32)cc1 | inactive: 1.11%
Cc1cccc(CNC(=O)c2cc3cc(S(=O)(=O)N4CCCCC4)ccc3n2C)c1 | inactive: -1.2%
O=C(Nc1ccc(C(=O)OCc2cc(=O)n3nc(C4CC4)sc3n2)cc1)c1ccccc1 | inactive: -16.7%
Clc1ccc2c(c1)-n1cc(-c3ccccc3)nc1CO2 | inactive: -4.87%
CCc1ccc(S(=O)(=O)c2cn(Cc3ccccc3)c3cc(N4CCCC4)c(F)cc3c2=O)cc1 | inactive: -12.4%
Cc1ccc(N2CC(NC(=O)c3ccccc3C(F)(F)F)CC2=O)cc1C (configuration not stated) | inactive: -15%
COc1ccc(Cl)cc1S(=O)(=O)Nc1ccc2[nH]c(=O)[nH]c2c1 | inactive: -27.4%
Cc1ccc(Cl)cc1N1CCN(C(=O)CCS(=O)(=O)c2cc(Br)cc3c2N(C(=O)C2CC2)CC3)CC1 | inactive: -19.3%
COc1ccc(NC(=O)CSc2oc(-c3cccs3)nc2S(=O)(=O)c2ccccc2)c(OC)c1 | inactive: -8.72%
Cc1ccc(Cn2c(SCc3ccc(C(=O)N4CCCCC4)cc3)nc3ccncc32)cc1 | inactive: -25.9%
CCC(=O)OC1=C(C(C)=O)N(Cc2ccccc2)S(=O)(=O)c2ccccc21 | inactive: -9.64%
CCc1ccccc1N1C(=O)CN(S(=O)(=O)CC)CC1(C)C(=O)NC1CCCCC1 (configuration not stated) | inactive: 0.614%
CCc1ccccc1NC(=O)Cn1nc(CC)n2c(cc3sccc32)c1=O | inactive: -19.6%
Cc1ccccc1NC(=O)C1CCN(S(=O)(=O)c2c(C)noc2/C=C/c2ccco2)CC1 | inactive: -13.1%
COc1ccc(C(=O)NCc2ccc3c(c2)CCN3C(C)=O)c(OC)c1 | inactive: -13.9%
COc1ccc(NC(=O)C2CCCN(c3ncnc4onc(C)c34)C2)cc1OC (configuration not stated) | inactive: -9.02%
CCC(=O)N1CCc2cc(CNC(=O)c3cccc(N(C)C)c3)ccc21 | inactive: -9.98%
CCOc1ccc(OCC)c(NC(=O)c2nnn(CC(=O)Nc3cc(Cl)ccc3OC)c2N)c1 | inactive: -4.13%
COc1ccc(-c2cc(C(=O)N3CCCCC3C)no2)cc1OC (configuration not stated) | inactive: -9.63%
NC(=O)c1ccc([N+](=O)[O-])cc1Cl | inactive: -10.9%
CCOc1ccccc1C1C(C(=O)Nc2ccccc2)=C(C)Nc2nc(SCC(=O)c3ccc(C)cc3)nn21 (configuration not stated) | inactive: 1.34%

Structure (SMILES) | activation
CC1CCCCN1CCCNC(=O)CN1C(=O)c2cccnc2Oc2ccc(Cl)cc21 (configuration not stated) | inactive: 14.6%
COc1ccc(C(=O)c2sc3nc4c(c(C(F)(F)F)c3c2N)CN(C(C)=O)CC4)cc1OC | inactive: -13.8%
CN(C(=O)CSc1nc(-c2ccccc2)no1)c1ccc(F)cc1 | inactive: -6.71%
O=C(COc1ccccc1)Nc1nnc(S(=O)(=O)Nc2ccccc2)s1 | inactive: -10%
Cc1ccc(Cl)cc1N1CCN(S(=O)(=O)c2cn(C)c(C)n2)CC1 | inactive: -21%
Cc1ccc(-c2nnc(Nc3cccc(Cl)c3)c3ccccc23)cc1S(=O)(=O)N1CCN(C)CC1 | inactive: -8.79%
CCN(Cc1ccccc1)c1ncnc2c1cnn2-c1ccc(F)cc1 | inactive: -10.7%
O=C1OCCN1/N=C/c1ccc([N+](=O)[O-])o1 | inactive: -16.7%
CCOc1ccccc1NC(=O)Nc1nnc(N2CCCC(C)C2)s1 (configuration not stated) | inactive: -9.69%
O=C(c1ccc(Cl)cc1)N1CCN(CCc2ccncc2)CC1 | inactive: -11.8%
CCOC(=O)N1CCN(C(=O)c2ccc3c(c2)N(Cc2ccccc2F)C(=O)c2ccccc2S3(=O)=O)CC1 | inactive: -1.22%
CCOc1ccc(CNC(=O)C2CCN(C(=O)c3ccc(-n4ccc5ccccc54)s3)CC2)cc1 | inactive: -18%
Cc1cccc(NC(=O)Cn2c(=O)n(CCCCCC(=O)NCc3ccccc3)c(=O)c3sccc32)c1 | inactive: -8.93%
CCOc1ccc(Nc2cc(C(=O)NCc3ccccc3Cl)c3ccccc3n2)cc1 | inactive: 2.74%
CCOC(=O)c1cc2c(=O)n3ccccc3nc2n(C)c1=NC(=O)c1c(-c2c(F)cccc2Cl)noc1C | inactive: -3.07%
O=C(Nc1ccc(Br)c(Cl)c1)c1ccc(C(=O)Nc2ccc(Br)c(Cl)c2)cc1 | inactive: -9.78%
CCc1ccc(NC(=O)CSc2nc3c(c(=O)[nH]2)CN(Cc2ccc4c(c2)OCO4)CC3)cc1 | inactive: -10.2%
O=C(CCCc1ccccc1)NC1CC(=O)N(c2cccc(F)c2)C1 (configuration not stated) | inactive: -14.9%
Cc1ccc(C)c(N2CCN(S(=O)(=O)c3c(C(=O)N4CCC(C)CC4)c(C)n(C)c3C)CC2)c1 | inactive: -6.93%
O=C(COc1ccccc1)NCC(c1ccc(Cl)cc1)N1CCCCC1 (configuration not stated) | inactive: -29.4%
COc1ccc(-c2nc(C(=O)Nc3cccc(C(C)=O)c3)nn2-c2ccccc2Cl)cc1 | inactive: -21.8%
COc1ccc(CNC(=O)CCc2nnc3n(C)c(=O)c4sccc4n23)cc1 | inactive: 2.32%
COc1ccccc1CNC(=O)C(=O)NCC(c1ccco1)S(=O)(=O)c1ccc(C)cc1 (configuration not stated) | inactive: -20%
